# The whole screen tested about 310,000 compounds, of which about 14,000 (4.5%) showed an effect of 50% or more. The effect is printed as a negative number. The list shows a part of the results.
# Target: human ether-à-go-go-related gene (hERG) potassium channel (human, UniProt Q12809)
# Test: primary screen, population patch clamp on CHO cells stably expressing hERG
# 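Note: peak tail current of the secondary pulse compared with the same well before compound.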
# human ether-à-go-go-related gene (hERG) potassium channel, sequence (Q12809 whole entry, looked up): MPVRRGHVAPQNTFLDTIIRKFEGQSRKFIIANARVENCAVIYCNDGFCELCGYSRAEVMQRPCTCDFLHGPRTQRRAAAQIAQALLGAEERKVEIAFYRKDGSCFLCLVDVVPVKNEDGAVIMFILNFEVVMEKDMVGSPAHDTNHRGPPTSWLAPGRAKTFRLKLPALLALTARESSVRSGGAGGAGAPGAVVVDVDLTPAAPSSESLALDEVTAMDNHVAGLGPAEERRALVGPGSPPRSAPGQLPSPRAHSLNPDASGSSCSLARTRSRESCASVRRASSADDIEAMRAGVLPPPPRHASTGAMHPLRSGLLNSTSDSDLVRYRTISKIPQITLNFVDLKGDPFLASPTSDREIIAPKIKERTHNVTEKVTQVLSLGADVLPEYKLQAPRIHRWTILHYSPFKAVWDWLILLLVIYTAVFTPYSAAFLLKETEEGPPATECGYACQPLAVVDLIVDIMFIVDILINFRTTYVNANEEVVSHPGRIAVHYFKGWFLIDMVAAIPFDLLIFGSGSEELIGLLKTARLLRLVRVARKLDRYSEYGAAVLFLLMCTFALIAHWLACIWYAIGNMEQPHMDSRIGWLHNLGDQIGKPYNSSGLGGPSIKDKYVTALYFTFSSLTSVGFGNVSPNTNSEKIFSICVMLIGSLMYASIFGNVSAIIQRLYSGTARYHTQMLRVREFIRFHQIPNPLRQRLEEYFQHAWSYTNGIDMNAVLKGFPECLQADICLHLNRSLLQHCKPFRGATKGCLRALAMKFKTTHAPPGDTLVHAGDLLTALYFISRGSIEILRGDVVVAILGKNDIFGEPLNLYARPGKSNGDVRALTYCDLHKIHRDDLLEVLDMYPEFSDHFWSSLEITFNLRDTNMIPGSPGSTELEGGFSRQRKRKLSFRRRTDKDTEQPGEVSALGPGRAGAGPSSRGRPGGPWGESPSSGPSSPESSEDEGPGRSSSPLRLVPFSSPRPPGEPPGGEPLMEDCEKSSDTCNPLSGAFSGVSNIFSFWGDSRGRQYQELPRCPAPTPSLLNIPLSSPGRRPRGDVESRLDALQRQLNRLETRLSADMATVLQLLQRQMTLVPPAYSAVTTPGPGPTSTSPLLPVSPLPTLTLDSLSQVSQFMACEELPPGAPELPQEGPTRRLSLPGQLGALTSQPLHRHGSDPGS
row,SMILES,"hERG current change (%, negative = inhibition) at 10uM [%]"
1,Cc1ccccc1NS(=O)(=O)c1ccc(C(=O)NCC(c2ccco2)N2CCCCC2)cc1 (stereo not shown),5.89
2,CCCc1cc(=O)oc2cc(C)cc(OCC(=O)N[C@@H](CSCc3ccccc3)C(=O)O)c12,-6.2
3,O=C(Cn1cnc2nc3n(c2c1=O)CCC3)NCc1ccccc1,-3.68
4,COc1ccc(NC(=O)c2cnc3n(c2=O)CCS3)cc1OC,13.4
5,N#Cc1sc2nc3c(cc2c1N)CCCC3,-6.61
6,COc1ccc(CN2CCOCC2)c(C)c1C,-9.9
7,COCCNc1nnc(SCC(=O)NNC(=O)c2ccco2)s1,-0.674
8,COc1ccc(-n2c(=S)[nH]c3cc(C(=O)N(C)Cc4ccccc4)ccc3c2=O)cc1,8.39
9,O=C1N/C(=C\c2ccccc2)c2ccccc21,4
10,C=CC[C@]12CC=CC(=O)[C@@]1(O)O[C@H](c1ccc(OC)c(OC)c1)[C@H]2C,11.9
11,CC(C)(C)N(NC(=O)Nc1ccccc1)C(=O)c1ccccc1Cl,17
12,Cc1ccc(C)c(S(=O)(=O)N2CCN(C(=O)c3cncc(Br)c3)CC2)c1,-20.3
13,COc1ccc(C2C(Oc3ccccc3)C(=O)N2c2ccc(C)c(C)c2)cc1OC (stereo not shown),0.00408
14,CC(=O)c1ccc(NS(=O)(=O)c2ccc(N/C=C/C(=O)c3ccc(F)cc3)cc2)cc1,15.1
15,CC(=O)Oc1ccc(C(=O)Nc2cccc(C(=O)c3cccc(NC(=O)c4ccc(OC(C)=O)cc4)c3)c2)cc1,3.32
16,CCC(CO)NC(=O)C1C=C2c3cccc4[nH]cc(c34)CC2N(C)C1 (stereo not shown),23.7
17,COCCN(C(C)=O)c1nnc(-c2ccccn2)s1,13.2
18,Cc1nc(SCC(=O)NCC2CCCO2)c2oc3ccccc3c2n1 (stereo not shown),-3.09
19,Cc1sc2c(c1C)CN(C1CC(C)(C)NC(C)(C)C1)CN2C(=O)c1ccco1,-32.8
20,Cc1ccc(C(=O)Nc2nnc(Cc3ccccc3)s2)cc1,9.35
21,C=C(C)C(=O)OCC(=O)NCc1ccccc1,24.6
22,COc1ccc(NC(=O)CCn2cccc2)c(OC)c1,11.8
23,CNC(=S)NNC(=O)c1ccc(=O)n(Cc2ccc(Cl)cc2Cl)c1,47.8
24,O=C(O)c1cccc(COc2ccc3c(c2)CCC3)c1,18.3
25,Cc1ccc(F)c([C@H]2[C@@H]3C=CCC[C@@]3(C)C(=O)N2Cc2ccccc2)c1,8.02
26,COc1ccccc1CC(=O)Nc1cc(OC)c(NC(=O)c2ccccc2)cc1OC,7.91
27,CCCn1c(N)cc(=O)n(CCC)c1=O,24
28,CCOc1cccc2sc(Nc3nc4ccc(NC(C)=O)cc4s3)nc12,5.63

row,SMILES,"hERG current change (%, negative = inhibition) at 10uM [%]"
1,O=C(c1ccc(N2C(=O)C3CC=C(Cl)CC3C2=O)cc1)N1CCCCC1 (stereo not shown),11.9
2,O=S(=O)(c1ccc(Cl)cc1)c1snnc1-c1ccccc1,-3.38
3,COC(=O)CSc1nc(Cc2ccccc2)nc2ccccc12,-26
4,CSc1n[nH]c(NCc2cccs2)n1,8.8
5,Cc1ccc(S(=O)(=O)NCCOC(=O)Nc2sc(=S)n(C)c2C)cc1,0.465
6,CN(/N=C/c1ccccc1Cl)c1ncc(Cl)cc1C(F)(F)F,7.79
7,CCC(=O)NC(NC(=S)Nc1ccc(S(N)(=O)=O)cc1)C(Cl)(Cl)Cl (stereo not shown),-1.3
8,C=CCOC(=O)C1=C[C@H](c2ccc(Br)cc2)C[C@H](OCc2ccc(CO)cc2)O1,-15.6
9,CN(C)CCN(Cc1ccccc1)S(=O)(=O)c1ccc(-c2ccc(=O)[nH]n2)s1,-67.4
10,Nc1nnc(SCc2ccccc2Cl)s1,2.17
11,CC(=O)Nc1ccc(/C=C(\C#N)C(N)=O)cc1,12.5
12,COc1cccc(N(C(=O)Cn2nnc(-c3ccc(C)cc3)n2)C(C(=O)NC(C)(C)C)c2c[nH]c3ccccc23)c1 (stereo not shown),11.4
13,O=C(c1ccc(NS(=O)(=O)c2ccccc2)cc1)N1CCOCC1,21
14,CC(=O)NS(=O)(=O)c1ccc(NC(=O)c2cccc3ccccc23)cc1,20.1
15,S=C(Nc1ccc(N2CCOCC2)cc1)Nc1ccc2snnc2c1,-5.04
16,O=C(COc1ccc(Br)cc1)Nc1ccc(C(=O)Nc2ccccc2C(=O)O)cc1,-4.9
17,CCC(=O)NCCc1nc2cc(NC(=O)c3ccc(F)cc3)ccc2n1C,1.29
18,CCN(CC)CCN(C(=O)c1ccc2c(c1)CCCC2)c1nc2c(C)cccc2s1.Cl,-30.2
19,O=C(Nc1ccc(Cl)cc1)N[C@@H]1c2c(ccc3ccccc23)OC[C@@H]1CO,9.18
20,CC(=O)Nc1ccc(-n2nnnc2SCC(=O)N2CCN(C(=O)c3ccco3)CC2)cc1,1.63
21,O=C(NCCc1ccccc1)c1ccc(-c2ccccc2Cl)o1,2.29
22,CCN(CC)S(=O)(=O)c1ccc(/C=C/C(=O)O)cc1,6.39
23,Cc1cccc(Cc2nnc(CCC(=O)N(C)CCc3ccccc3)o2)c1,2.18
24,O=C(N/N=C/c1coc2ccccc2c1=O)c1cccc([N+](=O)[O-])c1,26.8
25,O=C(NCc1ccco1)C1CCN(S(=O)(=O)c2ccccc2C(F)(F)F)CC1,-10.5
26,O=C1C2CC=CCC2C(=O)N1c1n[nH]c(-c2ccccc2)n1 (stereo not shown),-8.69
27,CCOC(=O)C1=c2s/c(=C\c3cccnc3)c(=O)n2C(N)=C(C(=O)OC)C1c1cccnc1 (stereo not shown),14.7

# — PMC4336329 (PLoS ONE, 2015)
